In publication PMC6993218 one finds binding data, which are given here for six molecules.

Chains of the proteins cited; added tags and fusions are not shown. Lines headed by an entry give the natural chain unless they say otherwise; changes in a name come on top.
UniProt Q92793: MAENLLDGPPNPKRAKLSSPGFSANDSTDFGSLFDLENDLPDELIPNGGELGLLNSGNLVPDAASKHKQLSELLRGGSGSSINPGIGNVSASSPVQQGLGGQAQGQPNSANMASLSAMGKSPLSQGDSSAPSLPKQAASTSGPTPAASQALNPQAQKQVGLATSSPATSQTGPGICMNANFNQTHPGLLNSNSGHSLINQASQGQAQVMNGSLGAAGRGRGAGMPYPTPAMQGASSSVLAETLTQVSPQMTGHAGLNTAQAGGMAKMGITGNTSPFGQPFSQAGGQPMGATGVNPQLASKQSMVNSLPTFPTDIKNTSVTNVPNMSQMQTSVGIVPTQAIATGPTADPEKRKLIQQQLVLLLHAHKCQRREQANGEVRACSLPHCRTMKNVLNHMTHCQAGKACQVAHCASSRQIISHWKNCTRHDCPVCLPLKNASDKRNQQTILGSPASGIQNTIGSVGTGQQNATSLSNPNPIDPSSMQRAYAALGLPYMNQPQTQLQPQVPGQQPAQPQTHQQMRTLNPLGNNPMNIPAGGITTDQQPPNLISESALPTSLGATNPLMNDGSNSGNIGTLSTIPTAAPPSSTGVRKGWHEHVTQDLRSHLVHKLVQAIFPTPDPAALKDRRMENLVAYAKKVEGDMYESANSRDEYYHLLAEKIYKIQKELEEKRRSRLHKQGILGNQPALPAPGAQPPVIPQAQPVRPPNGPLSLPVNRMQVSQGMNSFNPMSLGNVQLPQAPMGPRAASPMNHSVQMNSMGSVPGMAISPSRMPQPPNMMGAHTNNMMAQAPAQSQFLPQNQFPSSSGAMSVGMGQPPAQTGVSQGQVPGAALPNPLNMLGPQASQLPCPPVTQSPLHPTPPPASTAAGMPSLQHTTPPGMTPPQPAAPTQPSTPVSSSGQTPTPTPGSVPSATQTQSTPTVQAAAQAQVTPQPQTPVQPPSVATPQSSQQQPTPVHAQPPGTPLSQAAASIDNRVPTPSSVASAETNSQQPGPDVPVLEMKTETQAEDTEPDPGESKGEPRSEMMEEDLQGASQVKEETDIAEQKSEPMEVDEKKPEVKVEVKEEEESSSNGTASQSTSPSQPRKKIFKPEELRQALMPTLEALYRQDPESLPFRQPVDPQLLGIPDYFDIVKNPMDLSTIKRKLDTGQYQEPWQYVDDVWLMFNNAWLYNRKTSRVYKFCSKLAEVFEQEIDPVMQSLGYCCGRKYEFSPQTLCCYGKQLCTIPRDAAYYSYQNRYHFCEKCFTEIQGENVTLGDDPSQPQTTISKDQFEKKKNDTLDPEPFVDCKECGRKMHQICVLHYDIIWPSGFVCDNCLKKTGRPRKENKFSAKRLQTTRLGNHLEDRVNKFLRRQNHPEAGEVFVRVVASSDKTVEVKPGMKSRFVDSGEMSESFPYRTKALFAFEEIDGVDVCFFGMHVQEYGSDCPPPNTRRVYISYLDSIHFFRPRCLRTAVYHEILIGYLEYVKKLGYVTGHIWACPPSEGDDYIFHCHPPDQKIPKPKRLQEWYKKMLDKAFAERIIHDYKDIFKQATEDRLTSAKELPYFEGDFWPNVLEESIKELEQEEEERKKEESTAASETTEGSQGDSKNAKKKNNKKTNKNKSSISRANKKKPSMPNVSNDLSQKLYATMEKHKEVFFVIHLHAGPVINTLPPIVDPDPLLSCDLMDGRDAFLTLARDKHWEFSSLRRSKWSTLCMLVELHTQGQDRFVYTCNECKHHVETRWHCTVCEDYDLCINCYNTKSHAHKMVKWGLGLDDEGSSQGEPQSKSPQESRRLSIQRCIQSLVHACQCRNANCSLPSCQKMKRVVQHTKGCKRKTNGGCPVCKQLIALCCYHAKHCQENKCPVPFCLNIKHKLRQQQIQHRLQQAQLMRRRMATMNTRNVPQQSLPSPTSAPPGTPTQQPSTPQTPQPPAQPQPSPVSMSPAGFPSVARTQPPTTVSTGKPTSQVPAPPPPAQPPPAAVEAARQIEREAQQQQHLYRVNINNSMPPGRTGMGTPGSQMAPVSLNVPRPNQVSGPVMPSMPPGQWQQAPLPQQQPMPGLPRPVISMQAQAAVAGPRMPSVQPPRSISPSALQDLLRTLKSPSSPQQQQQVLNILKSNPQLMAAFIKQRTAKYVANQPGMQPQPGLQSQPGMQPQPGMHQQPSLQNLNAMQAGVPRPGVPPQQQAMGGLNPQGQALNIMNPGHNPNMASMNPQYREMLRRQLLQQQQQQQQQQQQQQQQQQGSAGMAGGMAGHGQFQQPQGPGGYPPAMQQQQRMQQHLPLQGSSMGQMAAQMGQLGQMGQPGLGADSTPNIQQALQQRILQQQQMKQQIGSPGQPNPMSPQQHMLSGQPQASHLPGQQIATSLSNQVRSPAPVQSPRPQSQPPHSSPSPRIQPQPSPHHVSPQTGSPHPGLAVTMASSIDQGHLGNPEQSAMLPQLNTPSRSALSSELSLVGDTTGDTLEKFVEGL

Results are given in words; binding and its absence hold for the method and conditions named. For some assays here: In cells and extracts the contact can be indirect. Some results given as binding are weak or reduced against the parent protein; the word gives no strength. For some assays here: Where a sequence is shown, tags or fusion partners need not be part of it.

In test [1] the target is DOT1L (endogenous) (human (endogenous in HCT116)) (UniProt Q8TEK3). Put plainly: co-IP; endogenous proteins, HCT116 cells; lysis in 20 mM Tris-HCl pH 7.9, 1% NP-40, 150 mM NaCl, 2 mM EDTA, 10% glycerol; antibody or control IgG overnight, protein A/G sepharose beads at 4°C.
The target in test [2] is Flag-DOT1L(WT) (UniProt Q8TEK3). Put plainly: co-IP; exogenous (transfected) proteins, HCT116 cells; NP-40 lysis buffer, protein A/G sepharose beads.
A further test addresses Flag-DOT1L(K358R) (UniProt Q8TEK3). Put plainly: co-IP; HCT116 cells transfected with DOT1L(WT), DOT1L(K358Q) or DOT1L(K358R); co-IP with RNF8.
Test [3] concerns the target Flag-DOT1L(WT) (UniProt Q8TEK3). Described as above.
Test [4] has as its target DOT1L (endogenous) (human (endogenous in HCT116)) (UniProt Q8TEK3). The test is described as follows: co-IP; endogenous proteins, nuclear proteins extracted from HCT116 cells (LoVo cells too); also after transfection of HA-CBP or pcDNA and after CBP siRNA or shNC.
The target of test [5] is T1, GST-DOT1L C-terminal domain (1139-1537aa) (UniProt Q8TEK3).
T1 sequence: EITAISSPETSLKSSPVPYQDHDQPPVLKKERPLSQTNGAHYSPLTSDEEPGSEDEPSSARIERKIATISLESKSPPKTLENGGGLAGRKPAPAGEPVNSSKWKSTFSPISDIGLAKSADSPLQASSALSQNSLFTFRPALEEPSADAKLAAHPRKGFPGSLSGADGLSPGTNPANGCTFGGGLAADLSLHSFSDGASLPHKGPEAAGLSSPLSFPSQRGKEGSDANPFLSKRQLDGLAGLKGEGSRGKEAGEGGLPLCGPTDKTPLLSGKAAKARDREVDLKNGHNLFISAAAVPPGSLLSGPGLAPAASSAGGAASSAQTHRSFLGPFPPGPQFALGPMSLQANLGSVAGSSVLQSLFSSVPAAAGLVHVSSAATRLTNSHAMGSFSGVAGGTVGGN
The test is described as follows: pull-down; purified GST or GST-DOT1L fragments on glutathione-Sepharose 4B beads incubated with His-RNF8 overnight at 4°C; washed with TEN buffer; western blot for His-RNF8, CBB staining for the GST proteins; both purified. On the technique in general: A western blot detects proteins with antibodies after separation by electrophoresis.

Test [6] addresses T2, GST-DOT1L N-terminal central region domain (417-579aa) (UniProt Q8TEK3).
T2 sequence: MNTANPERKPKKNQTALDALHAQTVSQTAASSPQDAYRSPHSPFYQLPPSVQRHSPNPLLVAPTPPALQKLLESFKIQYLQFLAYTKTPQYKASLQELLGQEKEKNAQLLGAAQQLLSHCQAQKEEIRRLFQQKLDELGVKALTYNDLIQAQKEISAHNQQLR
The test is described as above.

For test [7], the target named is GST-DOT1L N-terminal domain (1-416aa) (UniProt Q8TEK3). The test is described as above.
The target in test [8] is T3, GST-DOT1L STAT1 binding domain (580-1138aa) (UniProt Q8TEK3).
T3 sequence: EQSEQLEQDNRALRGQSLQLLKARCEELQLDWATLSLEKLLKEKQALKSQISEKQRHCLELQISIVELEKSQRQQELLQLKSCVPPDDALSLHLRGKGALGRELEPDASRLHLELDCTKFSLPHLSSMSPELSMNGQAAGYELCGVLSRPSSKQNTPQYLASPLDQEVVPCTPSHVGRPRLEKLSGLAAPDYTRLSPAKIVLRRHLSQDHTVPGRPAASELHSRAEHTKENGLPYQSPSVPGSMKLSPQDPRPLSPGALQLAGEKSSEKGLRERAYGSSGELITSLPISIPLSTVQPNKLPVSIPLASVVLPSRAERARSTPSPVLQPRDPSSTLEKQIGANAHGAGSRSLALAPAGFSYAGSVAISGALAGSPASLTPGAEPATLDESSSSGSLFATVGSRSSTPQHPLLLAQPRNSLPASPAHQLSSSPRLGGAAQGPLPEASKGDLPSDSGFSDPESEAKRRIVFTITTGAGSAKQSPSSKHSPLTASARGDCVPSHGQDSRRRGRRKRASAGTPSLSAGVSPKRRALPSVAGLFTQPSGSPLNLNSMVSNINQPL
The test is described as above.

Test [9] has as its target Flag-DOT1L(WT) (UniProt Q8TEK3). Put plainly: co-IP; exogenous (transfected) proteins, nuclear proteins extracted from HCT116 cells (LoVo cells too).
Substrate in test [10]: CBP (GST pull-down of Figure S6A) (UniProt Q92793)
Put plainly: pull-down; GST pull-down of RNF8 and CBP (Figure S6A); which protein carried GST is not stated.

Regarding “CBP (endogenous) (from UniProt Q92793 1-2442)”, in test [1], the binding result was “binds”. As for HA-CBP (from UniProt Q92793 1-2442), in the test with Flag-DOT1L(WT) [2], the binding entry is “binds”.

B1: RNF8 (endogenous) (protein, UniProt O76064 1-485)
chain: MGEPGFFVTGDRAGGRSWCLRRVGMSAGWLLLEDGCEVTVGRGFGVTYQLVSKICPLMISRNHCVLKQNPEGQWTIMDNKSLNGVWLNRARLEPLRVYSIHQGDYIQLGVPLENKENAEYEYEVTEEDWETIYPCLSPKNDQMIEKNKELRTKRKFSLDELAGPGAEGPSNLKSKINKVSCESGQPVKSQGKGEVASTPSDNLDPKLTALEPSKTTGAPIYPGFPKVTEVHHEQKASNSSASQRSLQMFKVTMSRILRLKIQMQEKHEAVMNVKKQTQKGNSKKVVQMEQELQDLQSQLCAEQAQQQARVEQLEKTFQEEEQHLQGLEIAQGEKDLKQQLAQALQEHWALMEELNRSKKDFEAIIQAKNKELEQTKEEKEKMQAQKEEVLSHMNDVLENELQCIICSEYFIEAVTLNCAHSFCSYCINEWMKRKIECPICRKDIKSKTYSLVLDNCINKMVNNLSSEVKERRIVLIRERKAKRLF
In the case of B1, the binding result (with Flag-DOT1L(K358R); with Flag-DOT1L(WT) [3]; in test [4]) was “binds” each time.

B2: His-RNF8 (protein, UniProt O76064 1-485)
chain: MGEPGFFVTGDRAGGRSWCLRRVGMSAGWLLLEDGCEVTVGRGFGVTYQLVSKICPLMISRNHCVLKQNPEGQWTIMDNKSLNGVWLNRARLEPLRVYSIHQGDYIQLGVPLENKENAEYEYEVTEEDWETIYPCLSPKNDQMIEKNKELRTKRKFSLDELAGPGAEGPSNLKSKINKVSCESGQPVKSQGKGEVASTPSDNLDPKLTALEPSKTTGAPIYPGFPKVTEVHHEQKASNSSASQRSLQMFKVTMSRILRLKIQMQEKHEAVMNVKKQTQKGNSKKVVQMEQELQDLQSQLCAEQAQQQARVEQLEKTFQEEEQHLQGLEIAQGEKDLKQQLAQALQEHWALMEELNRSKKDFEAIIQAKNKELEQTKEEKEKMQAQKEEVLSHMNDVLENELQCIICSEYFIEAVTLNCAHSFCSYCINEWMKRKIECPICRKDIKSKTYSLVLDNCINKMVNNLSSEVKERRIVLIRERKAKRLF
With B2, the binding entry in [5] is listed as “no binding”; in test [6] it was “binds”; in test [7], “binds”; in test [8], “binds”.

B3: GFP-RNF8 (protein, UniProt O76064 1-485)
chain: MGEPGFFVTGDRAGGRSWCLRRVGMSAGWLLLEDGCEVTVGRGFGVTYQLVSKICPLMISRNHCVLKQNPEGQWTIMDNKSLNGVWLNRARLEPLRVYSIHQGDYIQLGVPLENKENAEYEYEVTEEDWETIYPCLSPKNDQMIEKNKELRTKRKFSLDELAGPGAEGPSNLKSKINKVSCESGQPVKSQGKGEVASTPSDNLDPKLTALEPSKTTGAPIYPGFPKVTEVHHEQKASNSSASQRSLQMFKVTMSRILRLKIQMQEKHEAVMNVKKQTQKGNSKKVVQMEQELQDLQSQLCAEQAQQQARVEQLEKTFQEEEQHLQGLEIAQGEKDLKQQLAQALQEHWALMEELNRSKKDFEAIIQAKNKELEQTKEEKEKMQAQKEEVLSHMNDVLENELQCIICSEYFIEAVTLNCAHSFCSYCINEWMKRKIECPICRKDIKSKTYSLVLDNCINKMVNNLSSEVKERRIVLIRERKAKRLF
In the case of B3, the binding entry in the test with Flag-DOT1L(WT) [9] is reported as “binds”.

B4: RNF8 (GST pull-down of Figure S6A) (protein, UniProt O76064 1-485)
chain: MGEPGFFVTGDRAGGRSWCLRRVGMSAGWLLLEDGCEVTVGRGFGVTYQLVSKICPLMISRNHCVLKQNPEGQWTIMDNKSLNGVWLNRARLEPLRVYSIHQGDYIQLGVPLENKENAEYEYEVTEEDWETIYPCLSPKNDQMIEKNKELRTKRKFSLDELAGPGAEGPSNLKSKINKVSCESGQPVKSQGKGEVASTPSDNLDPKLTALEPSKTTGAPIYPGFPKVTEVHHEQKASNSSASQRSLQMFKVTMSRILRLKIQMQEKHEAVMNVKKQTQKGNSKKVVQMEQELQDLQSQLCAEQAQQQARVEQLEKTFQEEEQHLQGLEIAQGEKDLKQQLAQALQEHWALMEELNRSKKDFEAIIQAKNKELEQTKEEKEKMQAQKEEVLSHMNDVLENELQCIICSEYFIEAVTLNCAHSFCSYCINEWMKRKIECPICRKDIKSKTYSLVLDNCINKMVNNLSSEVKERRIVLIRERKAKRLF
For B4, in test [10], the binding result is “no binding”.
